Measured values published in the supplement of paper PMC3334620.
Whole data set: some 33,000 sequences, median “E-score (-0.5 to 0.5)” near -0.036, cut for the highest 2% near 0.37. The list shows a part of the results.

target: T1, Yer064c (UniProt P40041); test: PBM E-score (8-mer binding enrichment) (E-score (-0.5 to 0.5)); higher = stronger / more preferred TF binding; most listed sequences are background and not binding sites; conditions: protein concentration: 200 nM; construct: GST-full length
T1 sequence: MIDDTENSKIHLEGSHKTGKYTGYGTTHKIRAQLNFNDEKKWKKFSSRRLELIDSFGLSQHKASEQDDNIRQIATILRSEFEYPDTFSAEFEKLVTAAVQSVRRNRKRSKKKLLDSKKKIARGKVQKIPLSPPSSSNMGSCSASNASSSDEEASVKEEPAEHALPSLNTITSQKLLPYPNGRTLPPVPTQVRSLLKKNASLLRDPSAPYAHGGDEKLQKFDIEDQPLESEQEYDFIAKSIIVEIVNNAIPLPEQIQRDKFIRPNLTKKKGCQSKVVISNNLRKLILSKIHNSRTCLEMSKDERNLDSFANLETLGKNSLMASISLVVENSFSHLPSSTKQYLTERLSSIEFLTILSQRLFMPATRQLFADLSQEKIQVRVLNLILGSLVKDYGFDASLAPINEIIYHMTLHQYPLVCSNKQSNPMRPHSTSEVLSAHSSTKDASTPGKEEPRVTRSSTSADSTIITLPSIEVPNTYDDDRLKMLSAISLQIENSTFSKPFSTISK
Method: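 Universal 'all 10-mer' protein binding microarrays (Agilent AMADID 015681) probed with GST-tagged S. cerevisiae TFs (full-length or DBD) made by in vitro transcription/translation (PURExpress), about 100-200 nM. Bound TF was detected with fluorescent anti-GST. Each ungapped 8-mer (which stands for itself and its reverse complement) is scored by the PBM enrichment score (E-score), a modified Wilcoxon-Mann-Whitney statistic from -0.5 to +0.5, computed with the Universal PBM Analysis Suite. Scale: above 0.35 generally sequence-specific binding.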

| Sequence | PBM E-score |
| --- | --- |
| AATCATCT | 0.453 |
| CATACCGA | -0.0168 |
| CCCCCAGC | -0.0581 |
| AGTCTGCC | 0.251 |
| AACCGAAA | 0.0664 |
| AAGACTTA | 0.33 |
| AGACCTGC | -0.134 |
| GGTCCCAA | -0.14 |
| CGACTGGA | -0.115 |
| CCATATGG | 0.0474 |
| AAGCAGGA | -0.0481 |
| TCTGCCAA | -0.0288 |
| GGCCTTAA | -0.122 |
| AATGCGGA | -0.0306 |
| AGACGATA | -0.106 |
| GGGCTGTA | -0.212 |
| TACCGGTA | -0.207 |
| ATGAGAGA | 0.111 |
| ATGTGACC | 0.109 |
| AACCAAGT | 0.0684 |
| AGCCTCTA | -0.216 |
| CCCACCCC | -0.126 |
| CAGAGTGC | 0.0507 |
| AGATATTC | -0.12 |
| AATAAACG | -0.133 |

| Sequence | PBM E-score |
| --- | --- |
| ACATCTTG | -0.0492 |
| AGGAGCAC | -0.0195 |
| AGGCCAAG | -0.19 |
| CATGTGTA | 0.269 |
| CGAATGCA | -0.118 |
| AACAGGGA | -0.0524 |
| ACGGCCTC | -0.163 |
| ACTTGCTG | 0.0765 |
| GGCATGCA | -0.106 |
| GTTTACAA | 0.00942 |
| CTCATTAC | 0.14 |
| TCCGCCAA | -0.106 |
| ATGGACCC | -0.215 |
| ATTATACG | 0.0811 |
| AACCCTAC | -0.183 |
| GGCTCGTA | -0.00888 |
| TAGGGTGA | 0.249 |
| TCCTCTAA | 0.0696 |
| TACTACGA | 0.181 |
| TAACCCGA | 0.0588 |
| CCAGACAA | -0.106 |
| CTACCCTA | -0.00825 |
| CCGAGTAA | -0.0541 |
| CTGAAGAC | 0.152 |
| GACTGCAC | 0.288 |

| Sequence | PBM E-score |
| --- | --- |
| GGTCACAC | -0.00398 |
| ACGACTTA | 0.276 |
| ATCCCGTA | -0.128 |
| CGGAGATA | -0.051 |
| AGGAGCTA | -0.21 |
| AGTCCAGA | 0.243 |
| AAGGGATC | -0.128 |
| CAGCACCG | -0.0618 |
| ACAAATAC | 0.0831 |
| CGTCTCCA | -0.139 |
| ATCGGGAC | -0.0863 |
| CGCAAATA | -0.0941 |
| CCCTCACC | -0.163 |
| GATTTCAC | 0.26 |
| GGGCGTCA | -0.227 |
| GCCGCCAA | -0.0657 |
| ACGAAATC | 0.12 |
| ATCAGCAC | 0.233 |
| AATTCAAT | 0.0175 |
| CAATCGCC | 0.0336 |
| AGCGATCG | -0.147 |
| GAACATGC | -0.288 |
| AGTCGAAC | 0.219 |
| ACCCAATA | -0.195 |
| ATAACATG | 0.016 |

| Sequence | PBM E-score |
| --- | --- |
| CAACACAA | 0.0452 |
| AGCGCTGC | -0.207 |
| AATGGGCT | -0.041 |
| TGGGGTAA | 0.044 |
| ACGCCCTG | -0.221 |
| CATGCGCA | 0.0115 |
| GCGCGGCC | -0.365 |
| AACCGGAA | -0.263 |
| CCGACGCA | -0.317 |
| CCGCGTCG | 0.105 |
| AAGAGGGG | -0.354 |
| GCTTTAAA | 0.0638 |
| GATAATAC | 0.0323 |
| ACGCAGGA | -0.137 |
| ATACATAT | 0.113 |
| AATGTAAG | 0.0552 |
| GCGCCCAC | -0.243 |
| AGAGGGCA | 0.0642 |
| ACGAAACT | 0.0467 |
| CGCAGCGC | -0.189 |
| ATATACGA | 0.0449 |
| ATTCGTCC | 0.0945 |
| AAAGTGAG | 0.188 |
| ATAGCGAC | -0.0257 |
| ACATGTCT | 0.144 |

| Sequence | PBM E-score |
| --- | --- |
| AAGCAACG | -0.155 |
| ATGACTGA | 0.464 |
| AACCTAGA | -0.189 |
| GAACCGCA | 0.015 |
| AATGCTAC | 0.017 |
| CTAGTGGA | -0.0448 |
| GTCTCTTA | 0.034 |
| CGCATTCA | -0.0901 |
| CCGTTCTA | -0.0689 |
| CCGCAACA | 0.034 |
| CGCATCAG | 0.00592 |
| ATATCACC | -0.00284 |
| ACGGGTCG | -0.0559 |
| CGCGCCAA | -0.0672 |
| TGAAGGAA | 0.0648 |
| ATTTAATG | 0.0592 |
| ACGAAGCT | -0.147 |
| AGAGCCGC | -0.156 |
| ATGTAGCC | -0.196 |
| ACATTGGA | -0.253 |
| CCGGTTAC | 0.0003 |
| CCGAGCCG | -0.218 |
| ATCAACCA | 0.198 |
| GGTCCTAC | -0.276 |
| ATGATCAA | 0.185 |

| Sequence | PBM E-score |
| --- | --- |
| ATTCTTGA | 0.189 |
| ATTGCCCG | -0.0774 |
| GCTGATCA | 0.111 |
| TATTGAAA | 0.186 |
| AGCGCTGA | 0.0781 |
| CATGGCAG | 0.0472 |
| GATTCGTA | 0.166 |
| CTGTCCTA | -0.0316 |
| AACAACCC | -0.2 |
| CATCGAAG | -0.191 |
| AATTCTGG | -0.0115 |
| ATTCGTGC | 0.127 |
| CGATTGCA | 0.0549 |
| ACTCTAAG | 0.0252 |
| CCCCTTAG | -0.138 |
| ACTAGTCG | 0.323 |
| GATTCTTA | 0.294 |
| AATGTTGA | -0.043 |
| TGATAGAA | -0.16 |
| AAAGGCTT | -0.143 |
| AAGTGCTG | 0.0417 |
| AGGTCTAC | -0.0112 |
| CGCTATCC | -0.199 |
| ACTCATTC | 0.394 |
| GTATATTA | 0.206 |

| Sequence | PBM E-score |
| --- | --- |
| TCTCCAAA | 0.0477 |
| GCACTCGA | -0.0859 |
| ACCAGTTC | -0.271 |
| CATAAGCG | 0.00196 |
| ACTTATTA | 0.165 |
| CGAATAGA | -0.0882 |
| CCTTGGCG | -0.0906 |
| GAGCTTAA | 0.029 |
| AGGAGTAA | 0.177 |
| CTTCCACC | -0.24 |
| CCGGTACG | -0.174 |
| AAGTTGGC | -0.216 |
| ATCAGGGA | -0.0516 |
| GCTGTTCC | -0.335 |
| ATGCTATG | 0.0936 |
| CCGGAGAA | -0.117 |
| GTCCGTAA | 0.0807 |
| ATCTAGTA | 0.138 |
| GCCATCCA | -0.0888 |
| CGTGTGAC | 0.0672 |
| TGCCTTAA | -0.0909 |
| CTACTACC | -0.0463 |
